Data published in paper PMC12292926.
Results are given in words; binding and its absence hold for the method and conditions named. Binding seen in cells or lysates may run through a third protein. Some entries that bind do so weakly or less than the wild type. For some assays here: Sequences can lack the tags named with a protein.

The chains behind the UniProt entries cited, without tags or fusion partners. Where a name states a change or a piece, a line headed by the entry shows the natural chain unless it says otherwise. A line that says so, or that is headed by a name, gives the form on record, which may keep a tag or linker. Residues count along the entry.
UniProt Q8IZL8: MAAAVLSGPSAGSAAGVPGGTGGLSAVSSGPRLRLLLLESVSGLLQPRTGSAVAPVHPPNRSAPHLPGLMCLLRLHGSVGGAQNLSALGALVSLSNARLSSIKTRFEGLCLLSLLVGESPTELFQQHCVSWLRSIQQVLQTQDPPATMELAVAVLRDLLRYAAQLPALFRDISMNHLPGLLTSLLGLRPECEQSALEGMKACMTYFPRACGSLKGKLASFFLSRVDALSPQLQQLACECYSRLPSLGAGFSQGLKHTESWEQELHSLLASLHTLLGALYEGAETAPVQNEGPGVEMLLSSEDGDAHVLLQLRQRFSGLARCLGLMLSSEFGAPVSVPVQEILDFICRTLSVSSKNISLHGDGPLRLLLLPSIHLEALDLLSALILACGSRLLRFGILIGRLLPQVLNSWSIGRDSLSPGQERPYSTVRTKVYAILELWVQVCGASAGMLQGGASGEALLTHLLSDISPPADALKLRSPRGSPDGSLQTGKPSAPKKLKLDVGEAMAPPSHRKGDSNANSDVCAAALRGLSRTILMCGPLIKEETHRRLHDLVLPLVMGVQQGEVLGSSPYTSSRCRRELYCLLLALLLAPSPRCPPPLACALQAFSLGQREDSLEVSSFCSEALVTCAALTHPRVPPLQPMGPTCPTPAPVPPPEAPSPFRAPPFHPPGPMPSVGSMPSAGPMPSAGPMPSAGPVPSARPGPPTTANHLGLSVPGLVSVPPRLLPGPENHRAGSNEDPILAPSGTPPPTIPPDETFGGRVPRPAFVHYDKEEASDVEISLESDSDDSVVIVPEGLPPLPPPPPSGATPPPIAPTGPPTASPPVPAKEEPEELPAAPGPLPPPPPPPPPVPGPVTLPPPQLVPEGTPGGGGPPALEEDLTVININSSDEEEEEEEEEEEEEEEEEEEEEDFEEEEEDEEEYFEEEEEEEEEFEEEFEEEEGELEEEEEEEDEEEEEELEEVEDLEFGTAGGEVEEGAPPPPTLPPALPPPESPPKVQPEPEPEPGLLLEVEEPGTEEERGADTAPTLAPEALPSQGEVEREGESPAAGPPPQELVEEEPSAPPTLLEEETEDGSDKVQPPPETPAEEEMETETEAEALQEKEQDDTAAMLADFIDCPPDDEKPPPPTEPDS
PELP1 Rix1 domain (residues 1 to 642), C-terminal FLAG tag: residues 1-642 of Q8IZL8
UniProt Q9H4L4, residues 303-574: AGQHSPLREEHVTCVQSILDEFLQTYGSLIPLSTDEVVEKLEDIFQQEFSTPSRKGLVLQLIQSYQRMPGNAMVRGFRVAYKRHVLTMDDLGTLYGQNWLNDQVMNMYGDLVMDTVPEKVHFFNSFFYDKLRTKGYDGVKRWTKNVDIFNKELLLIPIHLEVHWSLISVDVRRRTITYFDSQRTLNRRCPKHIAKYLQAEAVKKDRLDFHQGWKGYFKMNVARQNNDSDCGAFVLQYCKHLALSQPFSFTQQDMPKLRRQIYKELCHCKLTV

Legend:
[1] = molecular target: T1, TEX10, wild type, N-terminal GFP tag (human) (UniProt Q9NXF1); test: co-IP; anti-GFP nanobody Sepharose; N-terminally GFP-tagged TEX10 variants as bait, exogenous rixosome including LAS1L-NOL9 co-transfected in HEK293FT; Western blot
T1 sequence: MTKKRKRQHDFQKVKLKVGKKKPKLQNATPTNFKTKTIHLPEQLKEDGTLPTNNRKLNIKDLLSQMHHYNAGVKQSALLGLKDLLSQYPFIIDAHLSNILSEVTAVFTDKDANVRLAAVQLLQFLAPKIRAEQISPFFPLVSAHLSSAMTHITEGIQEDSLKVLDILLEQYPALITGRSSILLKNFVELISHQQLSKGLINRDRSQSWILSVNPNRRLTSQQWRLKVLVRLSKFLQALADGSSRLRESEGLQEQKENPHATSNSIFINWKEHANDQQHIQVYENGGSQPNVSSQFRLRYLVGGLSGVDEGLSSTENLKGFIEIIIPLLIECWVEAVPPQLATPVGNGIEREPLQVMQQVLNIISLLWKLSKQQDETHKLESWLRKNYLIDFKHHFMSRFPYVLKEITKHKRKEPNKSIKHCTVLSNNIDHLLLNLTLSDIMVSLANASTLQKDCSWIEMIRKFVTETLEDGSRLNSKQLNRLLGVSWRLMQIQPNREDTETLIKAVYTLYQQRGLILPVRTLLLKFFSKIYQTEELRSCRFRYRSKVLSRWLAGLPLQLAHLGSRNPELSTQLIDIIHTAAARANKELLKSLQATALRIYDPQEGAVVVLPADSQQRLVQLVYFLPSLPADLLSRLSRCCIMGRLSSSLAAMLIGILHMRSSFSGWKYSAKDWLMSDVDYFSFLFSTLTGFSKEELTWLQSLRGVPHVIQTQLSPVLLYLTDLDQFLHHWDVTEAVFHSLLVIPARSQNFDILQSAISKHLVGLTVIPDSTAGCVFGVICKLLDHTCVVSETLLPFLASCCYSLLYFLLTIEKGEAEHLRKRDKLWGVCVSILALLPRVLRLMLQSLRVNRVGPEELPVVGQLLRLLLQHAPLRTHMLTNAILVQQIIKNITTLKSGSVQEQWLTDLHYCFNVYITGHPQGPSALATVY

[2] = molecular target: PELP1, wild type, C-terminal FLAG tag (human) (UniProt Q8IZL8); test: co-IP; anti-FLAG M2 affinity gel; FLAG-tagged PELP1 variants as bait, exogenous rixosome subunits co-transfected in HEK293FT; lysis in 50 mM Hepes pH 7.5, 200 mM NaCl, 5 mM MgCl2, 10% glycerol, 0.5% NP-40, 1 mM DTT, 4°C; SDS-PAGE and Western blot
[3] = molecular target: PELP1 Rix1 domain (residues 1 to 642), C-terminal FLAG tag (human) (UniProt Q8IZL8); test: as above
[4] = molecular target: PELP1 K826R (SUMOylation site lysine 826 to arginine) (human) (UniProt Q8IZL8); test: as above
[5] = molecular target: SENP3 SUMO protease domain (residues 303 to 574), N-terminal FLAG tag (human) (UniProt Q9H4L4); test: co-IP; anti-FLAG M2 affinity gel; N-terminally FLAG-tagged SENP3 truncations as bait, exogenous rixosome co-transfected in HEK293FT; Western blot

Measured: binding

B1: WDR18, co-expressed rixosome subunit (protein, UniProt Q9BV38 1-432)
chain: MAAPMEVAVCTDSAAPMWSCIVWELHSGANLLTYRGGQAGPRGLALLNGEYLLAAQLGKNYISAWELQRKDQLQQKIMCPGPVTCLTASPNGLYVLAGVAESIHLWEVSTGNLLVILSRHYQDVSCLQFTGDSSHFISGGKDCLVLVWSLCSVLQADPSRIPAPRHVWSHHALPITDLHCGFGGPLARVATSSLDQTVKLWEVSSGELLLSVLFDVSIMAVTMDLAEHHMFCGGSEGSIFQVDLFTWPGQRERSFHPEQDAGKVFKGHRNQVTCLSVSTDGSVLLSGSHDETVRLWDVQSKQCIRTVALKGPVTNAAILLAPVSMLSSDFRPSLPLPHFNKHLLGAEHGDEPRHGGLTLRLGLHQQGSEPSYLDRTEQLQAVLCSTMEKSVLGGQDQLRVRVTELEDEVRNLRKINRDLFDFSTRFITRPAK
binds: all assays above
